The DeepSol protein solubility set

Assay: soluble on expression in E. coli; label from the status in PepcDB or PDB records

Sequence	soluble on expression in E. coli
ARKCSLTGKWTNDLGSNMTIGAVNSRGEFTGTYITAVTATSNEIKESPLHGTQNTINKRTQPTFGFTVNWKFSESTTVFTGQCFIDRNGKEVLKTMWLLRSSVNDIGDDWKATRVGINIFTRLRTQKE	soluble
MINLKCTFAVTAGLCSSLAYAQKQPHIILIMTDQQRGDAMGCMGNESLISPHLDALASEGTLFMNGYSSCPSSTPARAGLLTGQSPWHHGLLGYGKVAPKYNHEMPQMLKDAGYYTFGIGKMHWHPQRIKHGFEGTLLDESGRREDPNFISDYRLWFQIQAPGKNPDETGIGWNDHGAATYKLKESLHPTYWTGEMACQMIQNYDNGNQPLFLKVSFARPHSPYDPPQRFLDMYKDAQVPDPVIGEWCGKYAKELDPEKAAKDAPYGNFGNEYARHSKRYYYANITFIDEQIGRVLQTLKDKGMYDNSLIIFVSDHGDMMGDHYHWRKTYPYEGSTHIPYIIKWPAKAQVVPGKVDNPVELRDLLPTFFEIAGTSVPTDIDGRSLLSLAKGTETEWRKYIDLEHATCYSDDNYWCALTDGKIKYIWYFYTGEEQLFDLAKDPKELHNAVNDKKYKKLLTGMRAEMIRHLSERGEEFVKDGQLVVRKKTMLYGPNYPKEKRLEHHHHHH	soluble
MKVAENQKVYDITIIGGGPTGLFTAFYGGMRQASVKIIESLPQLGGQLSALYPEKYIYDVAGFPKVRAQELVDNLKEQMKKFDPTVCLEEAVDTLEKQADGIFKLVTNKQTHYSKSVIITAGNGAFQPRRLELEGTAKYEKKNLHYFVDDMNKFAGKRVVVFGGGDSAVDWTMMLEPIAEKVTIVHRRDKFRAHEHSVENLMNSRAEVSTPYVPVELIGDDKIEQVVLQHVKTEEKVIIDVDDVIVNYGFVSSLGPIKNWGLDIQKNSILVNSKMETNIPGIYAAGDICTYEGKVKLIACGFGEAPTAVNNAKAYFDPNAKLQPMHSSSMF	not soluble
